According to US20260078155A1 (NAVIGO PROTEINS, published 2026):

B1: Affilin-199487 (designed binder)
chain: MQIFVKTLEEKYITLEVEPSDTIENVKARVQDKEGIPPDQQKLLWYGEQLEDGRTLSDYNILGGAVLKLQLRLRAAMQIFVKTLEEKYITLEVEPSDTIENVKARVQDKEGIPPDQQKLLWYGEQLEDGRTLSDYNILGGAVLKLQLRLRAA
B2: Affilin-199479 (designed binder)
chain: MQIFVKTLEERYITLEVEPSDTIGNVKAKIQDKEGIPPDQQKLLWYGEQLEDGRTLSDYNILGDAVLKLQLRLRAAMQIFVKTLEERYITLEVEPSDTIGNVKAKIQDKEGIPPDQQKLLWYGEQLEDGRTLSDYNILGDAVLKLQLRLRAA
B3: Affilin-199477 (designed binder)
chain: MQIFVKTLEEKYITLEVEPSDTIENVKAKIQDKEGIPPDQQKLLWYGKQLEDGRTLSDYNILGGAVLKLQLRLRAAMQIFVKTLEEKYITLEVEPSDTIENVKAKIQDKEGIPPDQQKLLWYGKQLEDGRTLSDYNILGGAVLKLQLRLRAA
B4: Affilin-199489 (designed binder)
chain: MQIFVKTLEEKYIALEVEPSDTIENVKAKVQDKEGIPPDQQELLWYGEQLEDGRTLSDYNILGGAVLKLQLRLRAAMQIFVKTLEEKYIALEVEPSDTIENVKAKVQDKEGIPPDQQELLWYGEQLEDGRTLSDYNILGGAVLKLQLRLRAA
B5: Affilin-187803 (designed binder)
chain: MQIFVQTYNIKDITLEVEPSDTIENVKAKIQDKEGIPPDQQMLFWSGKQLEDGRTLSDYNIIAYMTLTLHLKLRAA
notes: Ubiquitin mutein, monomer
B6: Affilin-197126 (designed binder)
chain: MQIFVKTLEEKYITLEVEPSDTIANVKAKIQDKEGIPPDQQKLLWYGKQLEDGRTLSDYNILGGAVLKLPLRLRAA
notes: Ubiquitin mutein, monomer
B7: Affilin-199488-Dota (designed binder)
chain: MQIFVKTLEEKYITLEVEPSDTIENVKARVQDKEGIPPDQQKLLWYGEQLEDGRTLSDYNILGGAVLKLQLRLRAAGGSGGGSGGGSGGGSGMQIFVKTLEEKYITLEVEPSDTIENVKARVQDKEGIPPDQQKLLWYGEQLEDGRTLSDYNILGGAVLKLQLRLRAA
modifications: DOTA label (Maleimide-DOTA, Example 7); coupling residue not stated for this construct
B8: Affilin-199488 (designed binder)
chain: MQIFVKTLEEKYITLEVEPSDTIENVKARVQDKEGIPPDQQKLLWYGEQLEDGRTLSDYNILGGAVLKLQLRLRAAGGSGGGSGGGSGGGSGMQIFVKTLEEKYITLEVEPSDTIENVKARVQDKEGIPPDQQKLLWYGEQLEDGRTLSDYNILGGAVLKLQLRLRAA
B9: Affilin-199481 (designed binder)
chain: MQIFVKTLEERYITLEVEPSDTIGNVKAKIQDKEGIPPDQQKLLWYGEQLEDGRTLSDYNILGDAVLKLQLRLRAAGGSGGGSGGGSGGGSGMQIFVKTLEERYITLEVEPSDTIGNVKAKIQDKEGIPPDQQKLLWYGEQLEDGRTLSDYNILGDAVLKLQLRLRAA
B10: Affilin-199490-Dota (designed binder)
chain: MQIFVKTLEEKYIALEVEPSDTIENVKAKVQDKEGIPPDQQELLWYGEQLEDGRTLSDYNILGGAVLKLQLRLRAAGGSGGGSGGGSGGGSGMQIFVKTLEEKYIALEVEPSDTIENVKAKVQDKEGIPPDQQELLWYGEQLEDGRTLSDYNILGGAVLKLQLRLRAA
modifications: DOTA label (Maleimide-DOTA, Example 7); coupling residue not stated for this construct
notes: Maleimide coupling needs a cysteine
B11: Affilin-199478 (designed binder)
chain: MQIFVKTLEEKYITLEVEPSDTIENVKAKIQDKEGIPPDQQKLLWYGKQLEDGRTLSDYNILGGAVLKLQLRLRAAGGSGGGSGGGSGGGSGMQIFVKTLEEKYITLEVEPSDTIENVKAKIQDKEGIPPDQQKLLWYGKQLEDGRTLSDYNILGGAVLKLQLRLRAA
B12: Affilin-189864 (designed binder)
chain: MQIFVVTRLYKEITLEVEPSDTIENVKAKIQDKEGIPPDQQYLYWDGKQLEDGRTLSDYNIRFGDHLDLTLGLRAA
notes: Ubiquitin mutein, monomer
B13: Affilin-189853 (designed binder)
chain: MQIFVVTRLYKETALEVEPSDTIENVKAKIQDKEGIPPDQQYLYWDGKQLEDGRTLSDYNIRFGYHLDLTLGLRAA
notes: Ubiquitin mutein, monomer
B14: Affilin-181919 (designed binder)
chain: MQIFVVTRLYKEITLEVEPSDTIENVKAKIQDKEGIPPDQQYLYWDGKQLEDGRTLSDYNIRFGYHLDLTLGLRAA
notes: Ubiquitin mutein, monomer
B15: Affilin-189872 (designed binder)
chain: MQIFVVTRLYKEITLEVEPSDTIENVKAKIQDKEGIPPDQQYLYGDGKQLEDGRTLSDYNIRFGDHLDLTLGLRAA
notes: Ubiquitin mutein, monomer
B16: Affilin-199482 (designed binder)
chain: MQIFVKTLEERYITLEVEPSDTIGNVKAKIQDKEGIPPDQQKLLWYGEQLEDGRTLSDYNILGDAVLKLQLRLRAAGGSGGGSGGGSGGGSGGGSGMQIFVKTLEERYITLEVEPSDTIGNVKAKIQDKEGIPPDQQKLLWYGEQLEDGRTLSDYNILGDAVLKLQLRLRAA
B17: Affilin-199480 (designed binder)
chain: MQIFVKTLEERYITLEVEPSDTIGNVKAKIQDKEGIPPDQQKLLWYGEQLEDGRTLSDYNILGDAVLKLQLRLRAAGGSGGGSGGGMQIFVKTLEERYITLEVEPSDTIGNVKAKIQDKEGIPPDQQKLLWYGEQLEDGRTLSDYNILGDAVLKLQLRLRAA

Tests used:
[1] = biological target: T1, FOLR1 on transfected HEK293-FOLR1-cells (human, UniProt P15328 25-234); test: flow cytometry on HEK293-FOLR1-cells, after 24 h in 100% mouse serum at 37 C
T1 construct: whole, on cells; also called surface-exposed FOLR1; folate receptor alpha
Experimental: (§1) Flow cytometry was used to analyze the specific interaction of FOLR1 binding proteins with surface-exposed FOLR1 but not with FOLR2. Transfected HEK293-FOLR1-cells, HEK293-FOLR2-cells, and empty vector control HEK293-pEntry-cells were trypsinized and resuspended in medium containing FCS, washed and stained in pre-cooled FACS blocking buffer. A cell concentration of 1×10⁶ cells/ml was prepared for cell staining and 100 μl/well were filled into a 96 well plate (Greiner) in triplicate for each cell line. 50 nM of Affilin proteins or monoclonal anti-human-FOLR1 antibody (clone LK 26; BioLegend, 908301) as positive control or anti-human-FOLR2 antibody (clone EM35; Sysmex, BD029864) were added to FOLR overexpressing and control cells. After 45 min the supernatants were removed, and 100 μl/well rabbit anti-Strep-Tag antibody (GenScript; A00626), 1:300 diluted in FACS blocking buffer, were added. Anti-FOLR1 antibody and anti-FOLR2 antibodies were detected with anti-mouse-IgG-Alexa 488 (Invitrogen; A-10680) with a dilution of 1:1000. After removal of the primary antibody, goat anti-rabbit IgG Alexa Fluor 488 antibody (Invitrogen; A11008) was applied in a 1:1000 dilution. Flow cytometry measurement was conducted on the Guava easyCyte 5HT device (Merck-Millipore) at excitation wavelength 488 nm and emission wavelength 520 nm.
(§2) The stability of FOLR1 binding proteins in the presence of serum was analyzed. […] 100 μl Affilin-serum solution was used to analyze the serum stability on HEK293-FOLR1-cells by FACS as described above (example 6). FACS analysis confirmed the binding of Affilin proteins to FOLR1 even after 24 h incubation in mouse serum (see Table 5). Further FOLR1 proteins were tested (results not shown) and binding to FOLR1 was confirmed even in the presence of serum.

[2] = biological target: T1, FOLR1 on transfected HEK293-FOLR1-cells; test: flow cytometry on HEK293-FOLR1-cells, 0 h in 100% mouse serum
Experimental: as §1, §2

[3] = biological target: T2, FOLR1-Fc (human FOLR1 residues 25-234 fused with the Fc-fragment of human IgG1 followed by a His-tag at the … (human, UniProt P15328 25-234)); test: SPR (Biacore 3000), FOLR1-Fc immobilized on CM5 chip, Langmuir 1:1
T2 construct: range 25-234; Made in Expi293F cells; also called FOLR1-Fc-His; folate receptor alpha; not shown: Fc-fragment of human IgG1; C-terminal His-tag
From the text: A CM5 sensor chip (GE Healthcare) was equilibrated with SPR running buffer. Surface-exposed carboxylic groups were activated by passing a mixture of EDC and NHS to yield reactive ester groups. 700-1500 RU FOLR1 (on-ligand) were immobilized on a flow cell. A flow cell without ligand was used as reference. Injection of ethanolamine after ligand immobilization was used to block unreacted NHS groups. Upon ligand binding, protein analyte was accumulated on the surface increasing the refractive index. This change in the refractive index was measured in real time and plotted as response or resonance units (RU) versus time. The analytes were applied to the chip in serial dilutions with a flow rate of 30 μl/min. The association was performed for 30 seconds and the dissociation for 60 seconds. After each run, the chip surface was regenerated with 30 μl regeneration buffer and equilibrated with running buffer. The control samples were applied to the matrix with a flow rate of 30 μl/min, while they associate for 60 seconds and dissociate for 120 seconds. Regeneration and re-equilibration were performed as previously mentioned. Binding studies were carried out by the use of the Biacore 3000 (GE Healthcare); data evaluation was operated via the BIAevaluation 3.0 software, provided by the manufacturer, by the use of the Langmuir 1:1 model (RI=0).

[4] = biological target: T1, FOLR1 on transfected HEK293-FOLR1-cells; test: flow cytometry on HEK293-FOLR1-cells; EC50 after 24 h in mouse serum against 0 h
Experimental: as §1, §2

Row | Binder | EC50 [1] [nM] | EC50 [2] [nM] | Kd [3] [nM] | Decrease (fold) [4] [fold]
1 | B1 | 0.62 | 0.33 | 0.151 | 1.9
2 | B2 | 0.31 | 0.34 | 0.0474 | 1
3 | B3 | – | – | 0.0187 | –
4 | B4 | 0.7 | 0.49 | 0.206 | 1.4
5 | B5 | – | – | 388 | –
6 | B6 | – | – | 2.15 | –
7 | B7 | 0.45 | 0.35 | – | 1.3
8 | B8 | 0.65 | 0.44 | 0.0849 | 1.5
9 | B9 | – | – | 0.0312 | –
10 | B10 | 0.37 | 0.3 | – | 1.2
11 | B11 | – | – | 0.207 | –
12 | B12 | – | – | 0.0291 | –
13 | B13 | – | – | 0.00742 | –
14 | B14 | – | – | 16.8 | –
15 | B15 | – | – | 0.00417 | –
16 | B16 | – | – | 0.0261 | –
17 | B17 | – | – | 0.0309 | –
